Measurements reported in patent US20240325499A1, “FGF21 COMPOUND / GLP-1R AGONIST COMBINATIONS WITH OPTIMIZED ACTIVITY RATIO” (SANOFI, priority 2018, published 2024).

B1: 25 (protein)
chain: HGEGTFTSDLSKQLEEEAVQLFIEWLLATGPSSGAPPPSGGGGGGGSGGGGSGGGGSA[sequence of human IgG4 Fc with changes not given]GGGSGSAHPIPDSSPLLQFGGQVRQRYLYTDDACQTEAHLEIREDGTVGGAADQSPESLLQLKALKPGVIQILGVKTSRFLCQRPDGALYGSLHFDPEACSFRELLLEDGYNVYQSEAHGLPLHLPGCKSPHRDPAPRGPARFLPLPGLPPAPPEPPGILAPQPPDVGSSDPLSMVYPSQGRSPSYAS
modifications: GLP1(7-36) A8G,V16L,S18K,Y19Q,G22E,Q23E,A25V,K26Q,E27L,A30E,V33L,K34A,G35T,R 36G,insPSSGAPPPS_[19GS] _IgG4 Fc variant_[7GS]_FGF21(His29-Ser209)Q55C,N149C,G198Y
B2: 28 (protein)
chain: GHGEGTFTSDLSIQLEEEAVRLFIEWLLAGGPSSGAPPPSGGGGGGGSGGGGSGGGGSA[sequence of human IgG4 Fc with changes not given]GGGSGSAHPIPDSSPLLQFGGQVRQRYLYTDDACQTEAHLEIREDGTVGGAADQSPESLLQLKALKPGVIQILGVKTSRFLCQRPDGALYGSLHFDPEACSFRELLLEDGYNVYQSEAHGLPLHLPGCKSPHRDPAPRGPARFLPLPGLPPAPPEPPGILAPQPPDVGSSDPLSMVGSQGRSPSYAS
modifications: GLP1(7-36) insG,A8G,V16L,S18I,Y19Q,G22E,Q23E,A25V,K26R,E27L,A30E,V33L,K34A,R 36G,insPSSGAPPPS_[19GS] _IgG4 Fc_variant [7GS]_FGF21(His29-Ser209)Q55C,N149C,delP199
B3: 34 (protein)
chain: GHGEGTFTSDLSKQLEEERVQEFIEWLVKGRPSSGAPPPSGGGGGGGSGGGGSGGGGSA[sequence of human IgG4 Fc with changes not given]GGGSGSAHPIPDSSPLLQFGGQVRQRYLYTDDACQTEAHLEIREDGTVGGAADQSPESLLQLKALKPGVIQILGVKTSRFLCQRPDGALYGSLHFDPEACSFRELLLEDGYNVYQSEAHGLPLHLPGCKSPHRDPAPRGPARFLPLPGLPPAPPEPPGILAPQPPDVGSSDPLSMVGSQGRSPSYAS
modifications: GLP1(7-36) insG,A8G,V16L,S18K,Y19Q,G22E,Q23E,A24R,A25V,K26Q,A30E,insPSSGAPPP S_[19GS]_IgG4 Fc_variant [7GS]_FGF21(His29-Ser209)Q55C,N149C,delP199
B4: 29 (protein)
chain: GHGEGTFTSDLSIQLEEEAVRLFIEWLLATGPSSGAPPPSGGGGGGGSGGGGSGGGGSA[sequence of human IgG4 Fc with changes not given]GGGSGSAHPIPDSSPLLQFGGQVRQRYLYTDDACQTEAHLEIREDGTVGGAADQSPESLLQLKALKPGVIQILGVKTSRFLCQRPDGALYGSLHFDPEACSFRELLLEDGYNVYQSEAHGLPLHLCGNKSPHRDPAPRGPARFLPLPGLPPAPPEPPGILAPQPPDVGSSDPLSMVGSQGRSPSYAS
modifications: GLP1(7-36) insG,A8G,V16L,S18I,Y19Q,G22E,Q23E,A25V,K26R,E27L,A30E,V33L,K34A,G 35T,R36G,insPSSGAPPPS_[19GS]_Ig4G Fc_variant [7GS]_FGF21(His29-Ser209)Q55C,P147C,delP199
B5: 35 (protein)
chain: HGEGTFTSDLSKQLEEEAVQLFIEWLEATGPSSGAPPPSGGGGGGGSGGGGSGGGGSA[sequence of human IgG4 Fc with changes not given]GGGSGSAHPIPDSSPLLQFGGQVRQRYLYTDDACQTEAHLEIREDGTVGGAADQSPESLLQLKALKPGVIQILGVKTSRFLCQRPDGALYGSLHFDPEACSFRELLLEDGYNVYQSEAHGLPLHLPGCKSPHRDPAPRGPARFLPLPGLPPAPPEPPGILAPQPPDVGSSDPLSMVGSQGRSPSYAS
modifications: GLP1(7-36) A8G,V16L,S18K,Y19Q,G22E,Q23E,A25V,K26Q,E27L,A30E,V33E,K34A,G35T,R 36G,insPSSGAPPPS_[19GS]_IgG4 Fc_variant [7GS]_FGF21(His29-Ser209)Q55C,N149C,delP199

biological target: T1, human GLP-1 receptor (Homo sapiens, UniProt P43220); assay: cAMP response (HTRF) in HEK-293 cell line stably expressing human GLP-1 receptor; type: cell-based; conditions: cAMP response, HEK-293 cells stably expressing human GLP-1 receptor
T1 construct: expressed in transfected cells; host or cells: HEK-293 cell line
T1 sequence (P43220 24-463): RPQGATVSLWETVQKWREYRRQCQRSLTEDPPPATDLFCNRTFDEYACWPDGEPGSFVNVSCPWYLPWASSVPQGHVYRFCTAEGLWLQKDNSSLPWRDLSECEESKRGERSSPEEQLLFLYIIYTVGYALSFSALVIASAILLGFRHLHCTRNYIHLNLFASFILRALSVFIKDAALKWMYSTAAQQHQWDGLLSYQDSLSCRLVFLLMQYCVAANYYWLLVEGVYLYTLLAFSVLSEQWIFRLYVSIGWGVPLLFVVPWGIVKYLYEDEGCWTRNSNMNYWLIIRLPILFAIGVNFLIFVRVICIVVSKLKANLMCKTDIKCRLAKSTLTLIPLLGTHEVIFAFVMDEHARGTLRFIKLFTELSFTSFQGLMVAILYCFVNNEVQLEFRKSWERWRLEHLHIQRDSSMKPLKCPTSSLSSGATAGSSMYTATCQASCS
Method: The cAMP content of cells was determined using a kit from Cisbio Corp. (cat. no. 62AM4PEC) based on HTRF (Homogenous Time Resolved Fluorescence). For preparation, cells were split into T175 culture flasks and grown overnight to near confluence in medium (DMEM/10% FBS). Medium was then removed and cells washed with PBS lacking calcium and magnesium, followed by proteinase treatment with accutase (Sigma-Aldrich cat. no. A6964). Detached cells were washed and resuspended in assay buffer (1x HBSS; 20 mM HEPES, 0.1% BSA, 2 mM IBMX) and cellular density determined. They were then diluted to 4×10^5 cells/mL and 25 μL-aliquots dispensed into the wells of 96-well plates. For measurement, 25 μL of test compound in assay buffer was added to the wells, followed by incubation for 30 minutes at room temperature. After addition of HTRF reagents diluted in lysis buffer (kit components), the plates were incubated for 1 h, followed by measurement of the fluorescence ratio at 665/620 nm.

| EC50 [nM] | Molecule |
| --- | --- |
| 0.0417 | B1 |
| 0.197 | B2 |
| 0.985 | B3 |
| 0.591 | B4 |
| 0.134 | B5 |

same assay, conditions: ratio X = activity X-fold reduced versus native GLP-1(7-36); HEK-293, cAMP

| Ratio GLP-1R agonistic activity: native GLP-1(7-36)/tested GLP-1R agonist | Molecule |
| --- | --- |
| 54.1 | B1 |
| 256.4 | B2 |
| 1279.0 | B3 |
| 767.8 | B4 |
| 174.1 | B5 |
